The text below walks through data of publication PMC5515408.

The other results are listed elsewhere or left out. At the low end of the ranking the order means little.

The test system of this experiment is MYC (p64) + MAX (p21), in MYC:MAX. The experiment can be described thus: protein-binding microarray (anti-MAX antibody). To be noted: PBM: 15 mM Tris-HCl pH 7.5, 100 mM KCl, 0.075% NP40, 7.5 mM beta-mercaptoethanol, 375 ng/ul BSA, 8 ng/ul poly(dA-dT):(dA-dT), 550 ng complex, 60 min, room …; high values mean tight binding; double strand, one strand shown; sequences stand for … in CCGGC…TTAATAGCTAAGATTACTATATCGACG
With TGATAGGTAGTA, the binding signal (log2 normalized fluorescence) was -0.0712.
The result for TGACTTCCCGTA reads -0.0132; that for TGACGCTTGGTA, 0.103.
The same measure for TGAGGTGAGGTA: 0.213; for TGACACGTTGTT: 0.604.
The result for TGACTAGTGGTA reads 0.119.
Turning to TGATAATCTGTA, the binding signal (log2 normalized fluorescence) is -0.0215.
The same measure for TGATGAGTTGTA: 0.12; for TGACATGAGTTA: 0.335; for TGATGAACGGTA: 0.0578.
The result for TGACAATCTGTA reads 0.125; that for TGAGATCCGGTA, 0.012; that for TGAGGAGGCGTA, -0.0643.
The same measure for TGACACTGGGTA: 0.11; for TGAAGCTTAGTA: -0.17; for TGAATGGCAGTA: 0.259.
On to TGATACCGTGTA, for which the binding signal (log2 normalized fluorescence) is 0.222.
As for TGAGACAATGTA, the binding signal (log2 normalized fluorescence) is 0.089.
Turning to TGAGACTGCGTA, the binding signal (log2 normalized fluorescence) was found to be 0.0741.
The result for TGATAATCCGTA reads -0.0325.
In the case of TGATTTACCGTA, the binding signal (log2 normalized fluorescence) stood at 0.118.
The same measure for TGAAGTTTTGTA: -0.0355.
The same measure for GCTCACGTGGTA: 0.815; for TGAGTCTCAGTA: -0.0895.
The same measure for TGAGAAGTGGTA: 0.121.
For the sequence TGAGCGTTAGTA, the binding signal (log2 normalized fluorescence) came out at 0.0906.
The same measure for TGGCACCCGGTA: 0.242; for TGACACGGGGAA: 0.402; for TGACATGTTGTA: 0.542.
The result for TGGCACGTGGGA reads 0.708; that for TGAACGCCAGTA, 0.226.
The same measure for TGAACAAACGTA: 0.0654; for TGAGCGCTAGTA: 0.11.
Consider TGAGGCTGTGTA, for which the binding signal (log2 normalized fluorescence) was -0.0862.
The result for TGAGGTCAGGTA reads -0.0439; that for TGAGACCTTGTA, 0.0603; that for TGAACTTAGGTA, 0.164.
On to TGAAGGATTGTA, for which the binding signal (log2 normalized fluorescence) amounted to 0.123.
The same measure for TGACACGGACTA: 0.356; for TGAGGCACAGTA: 0.131; for TCACACATCGTA: 0.444.
The same measure for TGACCGAGAGTA: 0.109; for TGACAGGGTGTA: 0.0932.
As to TGAAGAACAGTA, the binding signal (log2 normalized fluorescence) is -0.132.
The same measure for TGACGAGCCGTA: 0.0186.
The result for CTACACGTGGTG reads 0.779.
The result for TGAAGGGCTGTA reads -0.0586; that for TGACCGCGGGTA, 0.33; that for TGAATCTCGGTA, 0.0404.
For TGAGGGTGTGTA, the binding signal (log2 normalized fluorescence) was 0.248.
Regarding TGAACACCTGTA, the binding signal (log2 normalized fluorescence) stood at 0.407.
The result for TCTTACGTGGTA reads 0.358; that for TGATTGTTAGTA, -0.0854; that for TGACTGACTGTA, 0.111.
With TGACAGGGCGTA, the binding signal (log2 normalized fluorescence) turned out to be 0.0524.
For GGAAACGGGGTA, the binding signal (log2 normalized fluorescence) came to 0.475.
The same measure for TGACACGTAGTT: 0.406; for TGATACCGAGTA: -0.0874; for TGACGCTCGGTA: 0.159.
Regarding TGACCAGTGGTA, the binding signal (log2 normalized fluorescence) came to 0.215.
The same measure for TGACACCTGCTA: 0.552; for TGATAGTATGTA: 0.26.
Consider TGATACCAAGTA, for which the binding signal (log2 normalized fluorescence) is -0.101.
As for TGAGGCAGGGTA, the binding signal (log2 normalized fluorescence) was -0.0778.
The result for TGACTCGTGGCA reads 0.584.
The same measure for TGACACCTGGTA: 0.489.
Take TGACCCACTGTA: the binding signal (log2 normalized fluorescence) came out at 0.259.
Take TGAAAGCGTGTA: the binding signal (log2 normalized fluorescence) worked out at 0.399.
The result for TGATATGAAGTA reads -0.24; that for TGATCTAGCGTA, -0.0403.
With TGACTGTACGTA, the binding signal (log2 normalized fluorescence) came out at 0.279.
The result for TGAAATTGGGTA reads -0.212; that for TGACACTTGGAA, 0.157.
The same measure for TGATCTCGAGTA: 0.17; for TGACTCCATGTA: 0.336.
With TGATTTTTAGTA, the binding signal (log2 normalized fluorescence) is -0.146.
The result for TAACGGGTGGTA reads 0.318; that for TGATTTGACGTA, -0.0186.
The same measure for TGACTGCATGTA: 0.456; for GGAGACGATGTT: 0.0761.
The result for TGAACACAAGTA reads 0.488; that for TTACGCGTGGTC, 0.702.
Regarding TGAATAGCGGTA, the binding signal (log2 normalized fluorescence) is -0.233.
The result for CAAGTTACTAAA reads 0.0735; that for TGACAAATAGTA, -0.318; that for TGACCCGAAGTA, 0.0364.
The result for TGACGACCAGTA reads 0.154; that for TGAGGAATGGTA, 0.136.
TGAGACTGTGTA: the binding signal (log2 normalized fluorescence) came to 0.0362.
The same measure for TGACGGATAGTA: -0.0182.
As for TGAGCCGGCGTA, the binding signal (log2 normalized fluorescence) is -0.213.
The result for TGAAGTTACGTA reads 0.0936; that for TGACGATAAGTA, 0.0501.
With TGATTTTTCGTA, the binding signal (log2 normalized fluorescence) was -0.212.
The result for TGATGAGTCGTA reads -0.0527.
The result for TGACGGGATGTA reads 0.116; that for TGACCAATAGTA, 0.0118; that for TGACCATAGGTA, 0.235.
For the sequence TGACACGCGATT, the binding signal (log2 normalized fluorescence) is 0.502.
As to TGATTGACCGTA, the binding signal (log2 normalized fluorescence) is -0.0489.
The result for TTTCACGAGGTA reads 0.531; that for TGAAGAGGGGTA, 0.288; that for TGAATGTAAGTA, 0.187.
The result for TGAGTCTACGTA reads -0.0769.
The same measure for TGATCGTATGTA: 0.112; for TGACTGCTGGTA: 0.071; for TGAGTTGCCGTA: -0.0616.
Regarding TGACACACCGTA, the binding signal (log2 normalized fluorescence) is 0.434.
The same measure for TGAGCAAGAGTA: -0.0325; for TGATACAGCGTA: -0.0975.
The same measure for TGACACATAGTA: 0.285; for TCCCACGTGGTA: 0.763; for TGAGAATGCGTA: 0.164.
Regarding TGAGAGCCCGTA, the binding signal (log2 normalized fluorescence) worked out at 0.0836.
The result for TGAGACGTGCTA reads 0.456.
The result for TGATTTGCGGTA reads -0.103.
The result for CGACACGTGGAA reads 0.832; that for TGAAAAAATGTA, -0.0706.
For TGAAGTGGTGTA, the binding signal (log2 normalized fluorescence) is 0.143.
For the sequence TGAGCGGTCGTA, the binding signal (log2 normalized fluorescence) is -0.0551.
The same measure for TGAATTAATGTA: -0.0278.
The same measure for TGAAAACAAGTA: -0.0491; for TGAAATTCGGTA: 0.155.
In the case of TGACACTACGTA, the binding signal (log2 normalized fluorescence) came out at 0.203.
The same measure for TGAACCATAGTA: 0.262.
The result for TGACATTTCGTA reads 0.178; that for TGATGTGTTGTA, 0.277.
The result for TGATTCCACGTA reads 0.228; that for TGAGCCGACGTA, -0.0379.
As for TGAGATTCAGTA, the binding signal (log2 normalized fluorescence) was -0.0776.
The result for TGAACTTATGTA reads 0.216; that for TGAGTTTAAGTA, -0.127.
As to TGATGCGTTGTA, the binding signal (log2 normalized fluorescence) was found to be 0.287.
The result for TGATAAAGTGTA reads 0.0229; that for TGAGGTATGGTA, 0.28.
The result for TGAGGTCGAGTA reads -0.192; that for TGATCCCCTGTA, 0.00567.
The result for TGAACCCGGGTA reads 0.0812.
